Reference: the supplement of paper PMC6531468
The other results are listed elsewhere or left out. Read counts after selection give these values, which scatter widely. Scores sum up all selected molecules that hold the word; the word was not tested alone.

What was measured:
Experiment in all cases: 6-mer SELEX enrichment z-score vs GST control; IMP3 is the RNA-binding protein IGF2BP3; higher = more enriched by binding
IMP3 KH1-4 = conditions: construct: KH1-4 (164-579); SELEX round: R4
Method: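 SELEX-seq with GST-tagged IMP3 KH1-4 (Pro164-Lys579) and an N40 RNA pool, round 4. 6-mer z-score of sequence-tag enrichment normalised to the corresponding GST SELEX round; RNA k-mers written as DNA (T for U).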

IMP3 full-length = IMP3 full-length (UniProt O00425); conditions: construct: FL IMP3 (1-579); SELEX round: R4
UniProt O00425, sequence (O00425 whole entry): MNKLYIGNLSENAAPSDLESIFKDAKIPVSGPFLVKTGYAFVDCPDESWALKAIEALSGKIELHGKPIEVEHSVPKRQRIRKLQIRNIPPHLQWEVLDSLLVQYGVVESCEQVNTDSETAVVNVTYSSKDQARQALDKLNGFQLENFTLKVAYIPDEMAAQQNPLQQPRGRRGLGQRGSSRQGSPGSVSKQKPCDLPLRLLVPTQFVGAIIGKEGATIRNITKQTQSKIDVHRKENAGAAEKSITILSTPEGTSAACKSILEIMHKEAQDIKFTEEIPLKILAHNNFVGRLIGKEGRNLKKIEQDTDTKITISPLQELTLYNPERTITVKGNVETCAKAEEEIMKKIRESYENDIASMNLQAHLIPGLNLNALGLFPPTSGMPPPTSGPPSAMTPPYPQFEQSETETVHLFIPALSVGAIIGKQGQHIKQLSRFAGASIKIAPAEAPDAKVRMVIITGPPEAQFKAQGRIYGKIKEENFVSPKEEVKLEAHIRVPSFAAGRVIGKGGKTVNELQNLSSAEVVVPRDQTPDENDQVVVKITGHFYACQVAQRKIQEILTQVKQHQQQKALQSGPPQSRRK
Method: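 SELEX-seq with GST-tagged full-length IMP3 and an N40 RNA pool, round 4. Each 6-mer is scored as an enrichment z-score of sequence tags containing it, normalised to the matching GST SELEX round. RNA written as DNA (T = U).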

IMP3 KH1-2 = conditions: construct: KH1-2 (164-376); SELEX round: R4
IMP3 KH1-2, sequence (chain, as listed by the source): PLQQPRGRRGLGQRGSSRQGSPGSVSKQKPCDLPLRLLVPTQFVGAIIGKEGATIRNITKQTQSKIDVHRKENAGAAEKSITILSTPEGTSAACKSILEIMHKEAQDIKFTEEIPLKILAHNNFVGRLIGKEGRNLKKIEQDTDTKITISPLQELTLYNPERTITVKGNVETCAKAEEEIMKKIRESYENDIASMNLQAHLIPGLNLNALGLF
Method: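 SELEX-seq with GST-tagged IMP3 KH1-2 (Pro164-Phe376) and an N40 RNA pool, round 4 (stringent 300/600 mM KCl washes). 6-mer z-score of sequence-tag enrichment normalised to the corresponding GST SELEX round; RNA k-mers written as DNA (T for U).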

IMP3 KH3-4 = conditions: construct: KH3-4 (377-579); SELEX round: R4
IMP3 KH3-4, sequence (chain, as listed by the source): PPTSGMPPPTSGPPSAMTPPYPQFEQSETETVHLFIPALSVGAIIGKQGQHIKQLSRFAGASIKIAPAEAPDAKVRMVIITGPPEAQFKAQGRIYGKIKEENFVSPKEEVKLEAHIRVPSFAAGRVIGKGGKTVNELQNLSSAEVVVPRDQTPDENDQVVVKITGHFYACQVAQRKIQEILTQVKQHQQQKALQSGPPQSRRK
Method: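 SELEX-seq with GST-tagged IMP3 KH3-4 (Pro377-Lys579) and an N40 RNA pool, round 4. 6-mer z-score of sequence-tag enrichment normalised to the corresponding GST SELEX round; RNA k-mers written as DNA (T for U).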

IMP3 RRM1-2 = conditions: construct: RRM1-2 (1-163); SELEX round: R2
IMP3 RRM1-2, sequence (chain, as listed by the source): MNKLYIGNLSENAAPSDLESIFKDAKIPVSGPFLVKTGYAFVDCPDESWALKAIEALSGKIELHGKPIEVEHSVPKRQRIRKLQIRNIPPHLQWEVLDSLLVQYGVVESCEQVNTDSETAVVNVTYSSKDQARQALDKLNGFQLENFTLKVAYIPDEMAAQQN
Method: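 SELEX-seq with GST-tagged IMP3 RRM1-2 (Met1-Asn163) and an N40 RNA pool, round 2. 6-mer enrichment z-score normalised to GST SELEX. RNA written as DNA (T = U).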

IMP3 KH1-4, sequence (chain, as listed by the source): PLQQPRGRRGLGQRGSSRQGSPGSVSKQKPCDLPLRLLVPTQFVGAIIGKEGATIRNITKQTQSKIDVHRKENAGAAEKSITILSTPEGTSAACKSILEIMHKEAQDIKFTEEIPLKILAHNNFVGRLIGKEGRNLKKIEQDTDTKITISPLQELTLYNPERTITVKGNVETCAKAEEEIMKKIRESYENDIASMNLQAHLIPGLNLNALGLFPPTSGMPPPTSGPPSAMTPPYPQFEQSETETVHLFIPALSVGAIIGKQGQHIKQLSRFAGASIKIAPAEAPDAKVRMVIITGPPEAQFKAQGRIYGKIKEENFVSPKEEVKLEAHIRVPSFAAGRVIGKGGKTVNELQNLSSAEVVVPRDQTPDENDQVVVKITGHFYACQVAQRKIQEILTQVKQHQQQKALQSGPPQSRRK

Row | Sequence | 6-mer SELEX enrichment z-score (IMP3 KH1-4) | 6-mer SELEX enrichment z-score (IMP3 full-length) | 6-mer SELEX enrichment z-score (IMP3 KH1-2) | 6-mer SELEX enrichment z-score (IMP3 KH3-4) | 6-mer SELEX enrichment z-score (IMP3 RRM1-2)
1 | GTGAGA | 0.576 | -0.118 | 0.425 | 0.594 | –
2 | TGAAGC | -0.516 | -0.545 | -0.63 | -0.465 | –
3 | ACACGC | 0.797 | 1.19 | 0.869 | 0.07 | –
4 | AACCAC | -0.31 | -0.533 | 0.043 | -1.01 | –
5 | GTATCG | -0.413 | -0.093 | -0.39 | -0.246 | –
6 | GTTCGA | -0.709 | -0.385 | -0.644 | -0.54 | –
7 | CTTGAA | -0.872 | -0.919 | -0.836 | -0.759 | –
8 | GTATCC | -1.12 | -0.731 | -0.975 | -1.12 | –
9 | AATGAT | 1.8 | -0.259 | 1.19 | 2.61 | –
10 | TCGATG | -0.507 | -0.281 | -0.508 | -0.349 | –
11 | GCTAAC | -0.302 | -0.276 | -0.324 | -0.319 | –
12 | GAGGGG | 1.37 | 0.477 | 1.87 | 1.45 | –
13 | AAGATG | 0.791 | -0.664 | 0.448 | 1.27 | –
14 | ATGTTG | 0.23 | -0.071 | 0.04 | 0.297 | –
15 | GGGGAG | 1.14 | 0.536 | 1.59 | 1.18 | –
16 | TAAACG | -0.449 | -1.21 | -0.667 | -0.039 | –
17 | ACCTCT | -0.563 | -0.684 | -0.471 | -0.761 | –
18 | AAAAGG | -0.48 | -1.32 | -0.535 | 0.426 | –
19 | CGGTTG | -0.172 | 0.058 | -0.086 | -0.044 | –
20 | CAGTTT | 0.135 | 0.298 | 0.183 | 0.219 | –
21 | TGTACT | -0.181 | -0.257 | -0.215 | -0.131 | –
22 | ATTAAA | 1.55 | -0.247 | 1.25 | 3.12 | –
23 | TCGGAA | -0.082 | -0.088 | -0.242 | 0.159 | –
24 | GTGTCA | -0.457 | – | -0.424 | -0.34 | –
25 | AATATG | 1.74 | – | 1.27 | 2.39 | –
26 | ACTAAC | 0.661 | – | 0.868 | 0.69 | –
27 | TTGCAC | 0.841 | – | 0.603 | 0.342 | –

Row | Sequence | 6-mer SELEX enrichment z-score (IMP3 KH1-4) | 6-mer SELEX enrichment z-score (IMP3 full-length) | 6-mer SELEX enrichment z-score (IMP3 KH1-2) | 6-mer SELEX enrichment z-score (IMP3 KH3-4) | 6-mer SELEX enrichment z-score (IMP3 RRM1-2)
28 | CGATTT | 0.159 | -0.212 | – | 0.352 | –
29 | CTGACT | -0.308 | – | -0.223 | -0.356 | –
30 | CACGGT | 0.049 | 0.615 | – | -0.203 | –
31 | ACTCAC | -0.328 | – | -0.196 | -1.02 | –
32 | GAGAAT | 0.463 | -0.493 | – | 0.879 | –
33 | GAAGTC | 0.426 | – | 0.174 | 0.171 | –
34 | GTAGCG | -1.14 | -0.504 | – | -0.833 | –
35 | GGCCGC | 0.74 | – | 0.808 | 0.375 | –
36 | ATCCGA | -1.61 | – | -1.33 | -1.68 | –
37 | CCGCTT | 0.018 | – | 0.282 | -0.106 | –
38 | CGTGTC | -0.71 | – | -0.639 | -0.67 | –
39 | GTGATT | 0.348 | -0.147 | – | 0.485 | –
40 | ACACAC | 2.43 | 3.25 | – | 1.1 | –
41 | GATGTG | 0.775 | -0.191 | – | 0.638 | –
42 | AATCCC | -0.661 | -1.42 | – | -1.45 | –
43 | ATCACA | 2.23 | – | 2.43 | 1.48 | –
44 | CATCTT | 0.511 | 0.796 | – | 0.051 | –
45 | CAATTG | 0.028 | -0.208 | – | 0.061 | –
46 | TTCTCC | 0.517 | -0.049 | – | 0.085 | –
47 | TGGGTC | 0.004 | 0.309 | – | 0.236 | –
48 | ATCCTG | -0.524 | -0.589 | – | -0.79 | –
49 | ACAACA | 1.82 | 3.17 | – | 1.48 | –
50 | AATTGT | 0.576 | -0.238 | – | 0.76 | –
51 | TGGGCG | -1.13 | – | -0.925 | -0.691 | –
52 | CTTGGG | -0.606 | -0.067 | – | -0.328 | –
53 | AATCAT | 1.55 | 2.66 | – | 1.5 | –
54 | GTCAAA | -0.908 | -0.62 | – | -0.822 | –

Row | Sequence | 6-mer SELEX enrichment z-score (IMP3 KH1-4) | 6-mer SELEX enrichment z-score (IMP3 full-length) | 6-mer SELEX enrichment z-score (IMP3 KH1-2) | 6-mer SELEX enrichment z-score (IMP3 KH3-4) | 6-mer SELEX enrichment z-score (IMP3 RRM1-2)
55 | TAATCT | 0.497 | 0.039 | – | 0.559 | –
56 | CCAAGT | -0.703 | -0.531 | – | -0.856 | –
57 | CTATTT | 1.12 | – | 1.08 | – | –
58 | GCTCAG | -0.373 | – | -0.144 | – | –
59 | TATCTC | 0.176 | 0.129 | – | 0.144 | –
60 | TACACA | 2.02 | 2.29 | – | 1.51 | –
61 | ACATCA | 1.71 | – | 1.78 | – | –
62 | TCTTAA | 0.12 | – | 0.119 | 0.29 | –
63 | GTCGCA | 0.833 | – | 0.545 | 0.435 | –
64 | CGCCGG | -0.13 | – | – | -0.282 | –
65 | GCGCGC | – | 0.613 | 0.012 | – | 0.349
66 | GACCTT | – | -0.772 | -0.604 | – | -0.531
67 | AGTATC | – | -0.174 | – | – | 0.137
68 | TACCGG | – | 0.068 | -0.201 | – | -0.425
69 | TTAGTC | 0.355 | – | 0.204 | 0.355 | –
70 | ACATAT | – | 1.9 | – | – | 1.58
71 | TTGCAG | – | 0.339 | 0.488 | 0.412 | 0.166
72 | AATCTT | – | -0.033 | 0.043 | – | 0.14
73 | ACAATA | – | – | – | – | 0.615
74 | GGCGAA | -0.436 | – | -0.444 | 0.053 | –
75 | CATTTG | – | 0.451 | 0.265 | – | 0.59
76 | GCCCGA | – | -1.49 | -2.04 | – | -1.05
77 | GGAGTC | – | 0.582 | 0.589 | – | -0.072
78 | CTAGCG | – | -0.889 | -1.34 | -1.21 | -0.028
79 | TGTATG | – | -0.099 | 0.359 | – | 0.05
